This is one part of the list. Binding of human transcription factors and regulators to the viral nucleoprotein by AlphaScreen, crude cell-free proteins, amounts not normalised, one pass. Fold of the Venus control; higher = more signal. No active / inactive call. Single-pass screen; sequences are the whole Swiss-Prot entries looked up by name.
B1: ZNF280C, Q8ND82 (protein)
chain: MDDDKPFQPKNISKMAELFMECEEEELEPWQKKVEETQDEDDDELIFVGEISSSKPAISNILNRGHSSSSSKGIKSEPHSPGIPEIFRTASQRCRDPPSNPVAASPRFHLVSKSSQSSVTVENASKPDFTKNSQVGSDNSSILLFDSTQESLPPSQDIPAIFREGMKNTSYVLKHPSTSKVNSVTPKKPKTSEDVPQINPSTSLPLIGSPPVTSSQVMLSKGTNTSSPYDAGADYLRACPKCNVQFNLLDPLKYHMKHCCPDMITKFLGVIVKSERPCDEDKTDSETGKLIMLVNEFYYGRHEGVTEKEPKTYTTFKCFSCSKVLKNNIRFMNHMKHHLELEKQNNESWENHTTCQHCYRQYPTPFQLQCHIESTHTPHEFSTICKICELSFETEHILLQHMKDTHKPGEMPYVCQVCQFRSSTFSDVEAHFRAAHENTKNLLCPFCLKVSKMATPYMNHYMKHQKKGVHRCPKCRLQFLTSKEKAEHKAQHRTFIKPKELEGLPPGAKVTIRASLGPLQSKLPTAPFGCAPGTSFLQVTPPTSQNTTARNPRKSNASRSKTSKLHATTSTASKVNTSKPRGRIAKSKAKPSYKQKRQRNRKNKMSLALKNIRCRRGIHKCIECHSKIKDFASHFSIYIHCSFCKYNTNCNKAFVNHMMSSHSNHPGKRFCIFKKHSGTLRGITLVCLKCDFLADSSGLDRMAKHLSQRKTHTCQVIIENVSKSTSTSEPTTGCSLK
B2: NR3C2, P08235 (protein)
chain: METKGYHSLPEGLDMERRWGQVSQAVERSSLGPTERTDENNYMEIVNVSCVSGAIPNNSTQGSSKEKQELLPCLQQDNNRPGILTSDIKTELESKELSATVAESMGLYMDSVRDADYSYEQQNQQGSMSPAKIYQNVEQLVKFYKGNGHRPSTLSCVNTPLRSFMSDSGSSVNGGVMRAVVKSPIMCHEKSPSVCSPLNMTSSVCSPAGINSVSSTTASFGSFPVHSPITQGTPLTCSPNVENRGSRSHSPAHASNVGSPLSSPLSSMKSSISSPPSHCSVKSPVSSPNNVTLRSSVSSPANINNSRCSVSSPSNTNNRSTLSSPAASTVGSICSPVNNAFSYTASGTSAGSSTLRDVVPSPDTQEKGAQEVPFPKTEEVESAISNGVTGQLNIVQYIKPEPDGAFSSSCLGGNSKINSDSSFSVPIKQESTKHSCSGTSFKGNPTVNPFPFMDGSYFSFMDDKDYYSLSGILGPPVPGFDGNCEGSGFPVGIKQEPDDGSYYPEASIPSSAIVGVNSGGQSFHYRIGAQGTISLSRSARDQSFQHLSSFPPVNTLVESWKSHGDLSSRRSDGYPVLEYIPENVSSSTLRSVSTGSSRPSKICLVCGDEASGCHYGVVTCGSCKVFFKRAVEGQHNYLCAGRNDCIIDKIRRKNCPACRLQKCLQAGMNLGARKSKKLGKLKGIHEEQPQQQQPPPPPPPPQSPEEGTTYIAPAKEPSVNTALVPQLSTISRALTPSPVMVLENIEPEIVYAGYDSSKPDTAENLLSTLNRLAGKQMIQVVKWAKVLPGFKNLPLEDQITLIQYSWMCLSSFALSWRSYKHTNSQFLYFAPDLVFNEEKMHQSAMYELCQGMHQISLQFVRLQLTFEEYTIMKVLLLLSTIPKDGLKSQAAFEEMRTNYIKELRKMVTKCPNNSGQSWQRFYQLTKLLDSMHDLVSDLLEFCFYTFRESHALKVEFPAMLVEIISDQLPKVESGNAKPLYFHRK

molecular target: nucleoprotein N of Crimean-Congo hemorrhagic fever virus; assay: AlphaScreen luminescence signal relative to Venus negative control (fold); higher = stronger binding to CCHFV N
Experimental: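 AlphaScreen binding of cell-free made, FLAG-GST-tagged human transcription factors and regulators (crude translation products) to biotinylated N protein; signal as fold of the FLAG-GST-Venus control. One pass.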

Row | Binder | AlphaScreen luminescence signal
1 | B1 | 5.02
2 | B2 | 2.19
